Source: publication PMC11243198, “Identification of Novel GANT61 Analogs with Activity in Hedgehog Functional Assays and GLI1-Dependent Cancer Cells” (Molecules, 2024)
Marks after values point to notes of the source that are not given here.

How the values were obtained:
[1] = test system: Hh pathway in C3H10T1/2 cells; assay: C3H10T1/2 Hedgehog-responsive cell-based assay, alkaline phosphatase (AP) fluorescence readout; set-up: species or system murine; details: for Activity among the fifty-two analogs screened (preliminary SAR): screening for Hh pathway inhibition; for C3H10T1/2 (Flu AP) % inhibition at highest dose tested: SAG 30 nM, 5 days
[2] = test system: Gli-luciferase reporter NIH3T3 cell line; assay: Gli-luciferase NIH3T3 reporter assay; format: cell-based; details: SAG 26 nM, 30 h; for IC50: Mus musculus, NIH3T3, read-out: Gli-NIH3T3 (luciferase, IC50 μM)
Method: In these engineered NIH3T3 cells, the gene for firefly luciferase was stably integrated to be under the transcriptional control of Gli-responsive elements.
Gli reporter NIH3T3 cells (BPS Bioscience, catalog# 60409), a stable cell line that contains firefly luciferase gene under the control of Gli-responsive elements, were used to measure Hh pathway activity. Cells were grown in 96-well plates at a density of 25,000 cells/well for 24 h in Thaw Medium 5 (BPS Bioscience). After 24 h, the medium was replaced with fresh assay media (100 μL) using a Biomek®NX (Brea, CA, USA) automated liquid handler. […] To assess inhibition, the GANT61 analogs were added (serial dilutions of 0.098 to 50 μM) using a D300 system, and cells were then incubated at 37 °C for 30 h. Firefly luciferase activity was measured using the One-Step Luciferase Assay, according to vendor’s protocol (BPS Bioscience, catalog # 60690-1). Briefly, One-Step luciferase reagent (100 μL) was added to each well and incubated by shaking for 20 min at room temperature, followed by luminescence detection using a GloMax plate reader (Promega). To account for background luminescence, cell-free control wells were included. The background-subtracted luminescence of cells stimulated with SAG alone was set as 100% luminescence for calculating percent inhibition of the test compounds. The inhibition curves were plotted using GraphPad Prism 9 to determine IC50 values. Each assay was repeated at least three times.

[3] = test system: Hh pathway in C3H10T1/2 cells; assay: C3H10T1/2 AP absorbance (colorimetric, pNPP) assay; format: cell-based, murine; details: SAG 30 nM, 5 days; for IC50: Mus musculus, C3H 10T1/2, 120 h, absorbance 405 nm, read-out: C3H10T1/2 (Abs AP, IC50 μM)
[4] = test system: Hh pathway in C3H10T1/2 cells; assay: C3H10T1/2 AP fluorescence assay with purmorphamine (PUR) as pathway activator; format: cell-based, murine; details: PUR 500 nM, 5 days
[5] = set-up: method as in PMID 29338454; details: cited from earlier work

| SMILES | C3H10T1/2 (Flu AP) % inhibition at highest dose tested [1] | IC50 [2] [µM] | C3H10T1/2 (Abs AP) % inhibition at highest dose tested [3] [%] | C3H10T1/2 (PUR; Flu AP) % inhibition at highest dose tested [4] [%] | other results |
| --- | --- | --- | --- | --- | --- |
| c1ccc(NCc2ccncc2)cc1 [BAS 06103407] |  |  |  |  | Activity among the fifty-two analogs screened (preliminary SAR) [1]: inactive |
| Nc1ccc(CN2CCCCCC2)cc1 [BAS 06348344] | <20% | 0.9 | <20 | <20 |  |
| CCC(=O)Nc1ccc(N2CCN(Cc3ccccc3)CC2)cc1 [BAS 06844821] | <20% |  | <20 | <20 | Gli-NIH3T3 (luciferase) % inhibition at highest dose tested [2]: ~40% |
| Fc1ccc(NCc2ccncc2)cc1 [BAS 07018849] |  |  |  |  | Activity among the fifty-two analogs screened (preliminary SAR) [1]: inactive |
| c1cc(CNc2ccc(N3CCCC3)cc2)ccn1 [BAS 07019774, pyridin-4-ylmethyl-(4-pyrrolidin-1-yl-phenyl)-amine] |  | 11.2 |  |  | IC50 [3]: 3.3 µM |
| CN(Cc1ccccc1)C1CCNCC1 [BAS 09681156] | <20% | 3.8 | ~30 | ~40 |  |
| N#Cc1ccc(C(=O)Nc2ccccc2C(=O)NC2CC2)cc1 [Compound Z27610715] |  | 6.7 | <20 |  |  |
| CNC(=O)c1ccc(NC(=O)CCNC(=O)c2ccccc2)cc1 [Compound Z27613695] | <20% ^a |  | <20 | <20 | Gli-NIH3T3 (luciferase) % inhibition at highest dose tested [2]: <20% |
| CN(C)c1ccccc1CN1CCCN(Cc2ccccc2N(C)C)C1c1ccncc1 [GANT61] |  | 1.9 |  |  | IC50 [3]: 3.7 µM; stability under physiological conditions [5]: unstable under physiological conditions |
| CC1=C2C[C@H]3[C@@H](CC=C4CC(=O)CC[C@@]43C)[C@@H]2CC[C@]12O[C@@H]1C[C@H](C)CN(CCNC(=O)CCCCCNC(=O)CCc3ccccc3)[C@H]1[C@H]2C [KAAD-cyc, KAAD-cyclopamine, reference compound] |  |  |  |  | IC90 ([1]; with 30 nM SAG, used as minimum signal control): 40 nM |
